Experimental data published in paper PMC12136788.
This is one part of the list.

T1: UNK ZnF1-3 (human, UniProt Q9C0B0 31-174)
T1 sequence: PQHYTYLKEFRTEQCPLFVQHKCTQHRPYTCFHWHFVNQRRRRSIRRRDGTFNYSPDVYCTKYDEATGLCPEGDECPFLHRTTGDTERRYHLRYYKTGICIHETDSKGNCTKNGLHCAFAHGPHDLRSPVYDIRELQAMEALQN

B1: chrX:71549400:71549401:+_ENSMUSG00000019087_ENSMUST00000019231|mus_hu|mus_mus_mus_hu_False|48_98 (ssRNA)
RNA: GGGAGUUCUACAGUCCGACGAUCGCAGUAGGAAGAGCAAACCUUUCCAGUCCAGUGCGCUGCAGGGUGGGAAAGCAACAACACGGAACCAAUACUCCCCUCAACCCCCCCACUGGCACAGGGUCACACAAUCUGGGUCAAAGACAACAGAGGAUUGAGCAUCA
B2: 27457493_27458172_3948_CDS_ENSG00000084774_ENST00000264705|human|control|control (ssRNA)
RNA: GGGAGUUCUACAGUCCGACGAUCCAUUUCCACACCCAACACCACGUCAGCACCCGCCAAGCGGGAGAAGGAGAACUGAGGCACCUUUACUCCCACGACUCCAGAACCAGUCAUUAGCCCCACAGGUUCCACUUCUUCCCCCAUCAACAGAGGAUUGAGCAUCA
B3: chr7:56126341:56126342:+_ENSG00000146731_ENST00000540286|hu_mus|hu_hu_hu_mus_True|68_88 (ssRNA)
RNA: GGGAGUUCUACAGUCCGACGAUCCAUGUUUCUCCUCUUGGCUCUGCGCAGAGCAACGAUCCCUUCUUUUGAAAGAGCAUCUAAGGAAAAGGGGUCAAUCCCCUUUUGAUUAAUAACGACAAAUCCUUUAUCUGAGUCACCACACAACAGAGGAUUGAGCAUCA
B4: chrX:17825403:17825404:+_ENSMUSG00000037369_ENSMUST00000044484|mus_hu|FALSE|FALSE (ssRNA)
RNA: GGGAGUUCUACAGUCCGACGAUCAUGAGCUUGUUGCUGUACUGGAGGAUGUGACACAGCAUGUCCACCACUCCAAUUGUCAGAAGUAUUCUGCUGUGCUGUGUUCAUGGCACCCUGCCUGGAGGUAAGCUCUGCGGGAAUUGGCAACAGAGGAUUGAGCAUCA
B5: chrX:71549762:71549763:+_ENSMUSG00000019087_ENSMUST00000019231|mus_hu|FALSE|FALSE (ssRNA)
RNA: GGGAGUUCUACAGUCCGACGAUCAAACCCGUGUACUUCUUAUUGUUAGCACAACAUCACCAGAAAACGAUAACGACAGCCAAGCAGGACAGACAGUUAAGUAGUACUUCCACACUCCCAAACUCAGGGAGCCCUAUAACCUUACAACAGAGGAUUGAGCAUCA
B6: chr12:70286429:70286430:+_ENSMUSG00000043998_ENSMUST00000060579|mus_mus|FALSE|FALSE (ssRNA)
RNA: GGGAGUUCUACAGUCCGACGAUCACACUCCUGCUGCUUCAGUUUCCACAUCUUUUUGAAGACAUGGUAAAAGUCUGGGGCUAAGUAGUGGUCCUCUUCCAGGAAGAGUAUAAGGCCAGUGUAAUCUUGAAGAACUUUGACUCUCAACAGAGGAUUGAGCAUCA
B7: chr16:94664741:94664742:+_ENSMUSG00000040785_ENSMUST00000117648|mus_hu|mus_mus_mus_hu_False|1_28 (ssRNA)
RNA: GGGAGUUCUACAGUCCGACGAUCUGGUACUGAUCUUGGUAGCUGAUAUUCAGGAGAAAGGCUGGCCAAGGGUGUAUAUAUGCUGGUGUACUGGGGCAAACCUGGUACCAUGUUAAUGUAUGCUGGCGGUGUCUGGGUGCCAAACAACAGAGGAUUGAGCAUCA
B8: chr9:128199989:128199990:-_ENSG00000119487_ENST00000373498|hu_mus|motif|central (ssRNA)
RNA: GGGAGUUCUACAGUCCGACGAUCCAAAGAAGCACACUUGACUCUGAGAUGCUUAGACACAAUGAUUUAAAAAAUGUCCGGAACACAGGUCGUAUAAGAUAUCGGCUGUGGCCCUGGCCCAAGGAUGCUGCCACAGGCGGGACCCAACAGAGGAUUGAGCAUCA
B9: chr5:132424181:132424182:+_ENSG00000170606_ENST00000304858|hu_mus|FALSE|FALSE (ssRNA)
RNA: GGGAGUUCUACAGUCCGACGAUCUGCACACUGCAGAGCACAGCCUCGAGUGACAGCUUCAUCUGCAUUUAAUGUUGUGCUGAGUUCUUUACCAAAAAACUUGCUGAUCUUCUCUUUCACUGCAGGGAUUCGUGUGGCACCACCCAACAGAGGAUUGAGCAUCA
B10: chr11:87044885:87044886:-_ENSMUSG00000046442_ENSMUST00000055438|mus_hu|motif|central (ssRNA)
RNA: GGGAGUUCUACAGUCCGACGAUCAGGACCAAACAUCUCAACUGGUAGCAAAAACUGGGCACUGUGAGGUUUGCUUGCUUCGGUUUGUGUGAGAUCUAGGUAGCCUGGGUCUUCCAGCACGUUGAUUUGGGACCCUGGGCUCAGCAACAGAGGAUUGAGCAUCA
B11: 103024646_103024766_6071_3pUTR_ENSMUSG00000009575_ENSMUST00000118152|mouse|control|control (ssRNA)
RNA: GGGAGUUCUACAGUCCGACGAUCGAGUUCAAUUCUCUCCUACCCACCCACACAAACAGGAAUGCACACAUCCCCUCAUAAUCCCAGUAUUUAAGGCUGAGGCAGGAGUACUACAAGCACUAGGGCCAGCCUAGGCUCUUUAAACAACAGAGGAUUGAGCAUCA
B12: 105400607_105404228_2276_CDS_ENSG00000114423_ENST00000394027|human|control|control (ssRNA)
RNA: GGGAGUUCUACAGUCCGACGAUCCUCUGAAGAUGGACCAUGUGUUCCAUUCAGCAUACAGUGACCAUUAUCACAAGACCGAACAGGAGGUUUUACAUUAUGACAAUGAGAUGGUUGUGAAUUCAGGGAAACAGGGUGGGAUGACAACAGAGGAUUGAGCAUCA
B13: chr7:140881322:140881323:-_ENSMUSG00000030979_ENSMUST00000135760|mus_hu|FALSE|FALSE (ssRNA)
RNA: GGGAGUUCUACAGUCCGACGAUCAAUUUGAUCGAUAUUGUCACCAGAUAACUCCUGAAUGUGCUUGAGACUGUAUGUGAGGCCAGAGGGACUAAAAAAUGUGAUGCUGGCUGGAACCCCCUGCUGGGAAUAGUAGCUGUUCAGCAACAGAGGAUUGAGCAUCA
B14: chr11:46405157:46405158:+_ENSG00000110492_ENST00000395566|hu_hu|hu_hu_hu_mus_False|68_68 (ssRNA)
RNA: GGGAGUUCUACAGUCCGACGAUCCCCUCCCCACUUUGGGCACUUGGUGUGGGCGUGAGAGGACAGGAUGAUUGAUUAGAGCUGACAGGAAGACAAAAGGCACUGGUGGGUUAUAUCUUGGGCCUGUGGGAGAGGAGGGCUCCGCAACAGAGGAUUGAGCAUCA

Target: T1, UNK ZnF1-3
Assay: nsRBNS (natural sequence RNA bind-n-seq); RBNS binding buffer (assumed for nsRBNS): 25 mM Tris pH 7.5, 150 mM KCl, 3 mM MgCl2, 0.01% Triton X-100, 500 ug/ml BSA, 20 U/ml SUPERase-In, 4 C; UNK is unkempt and MSI1 is Musashi-1; names of the RNAs are library labels; protein concentration not given here; high values mean tight binding

Point of comparison: B6, binding signal 0.752 enrichment R. Against it:
- B1 — higher, 1.77 enrichment R
- B2 — higher, 1.31 enrichment R
- B3 — higher, 2.07 enrichment R
- B4 — lower, 0.601 enrichment R
- B5 — higher, 1.44 enrichment R
- B7 — higher, 1.19 enrichment R
- B8 — higher, 1.32 enrichment R
- B9 — higher, 0.962 enrichment R
- B10 — higher, 1.12 enrichment R
- B11 — higher, 0.954 enrichment R
- B12 — higher, 1.35 enrichment R
- B13 — higher, 1.74 enrichment R
- B14 — higher, 1.96 enrichment R
